From PMC7948960 come the findings set out here.

Chains of the proteins cited; added tags and fusions are not shown. Lines headed by an entry give the natural chain unless they say otherwise; changes in a name come on top.
UniProt Q99683: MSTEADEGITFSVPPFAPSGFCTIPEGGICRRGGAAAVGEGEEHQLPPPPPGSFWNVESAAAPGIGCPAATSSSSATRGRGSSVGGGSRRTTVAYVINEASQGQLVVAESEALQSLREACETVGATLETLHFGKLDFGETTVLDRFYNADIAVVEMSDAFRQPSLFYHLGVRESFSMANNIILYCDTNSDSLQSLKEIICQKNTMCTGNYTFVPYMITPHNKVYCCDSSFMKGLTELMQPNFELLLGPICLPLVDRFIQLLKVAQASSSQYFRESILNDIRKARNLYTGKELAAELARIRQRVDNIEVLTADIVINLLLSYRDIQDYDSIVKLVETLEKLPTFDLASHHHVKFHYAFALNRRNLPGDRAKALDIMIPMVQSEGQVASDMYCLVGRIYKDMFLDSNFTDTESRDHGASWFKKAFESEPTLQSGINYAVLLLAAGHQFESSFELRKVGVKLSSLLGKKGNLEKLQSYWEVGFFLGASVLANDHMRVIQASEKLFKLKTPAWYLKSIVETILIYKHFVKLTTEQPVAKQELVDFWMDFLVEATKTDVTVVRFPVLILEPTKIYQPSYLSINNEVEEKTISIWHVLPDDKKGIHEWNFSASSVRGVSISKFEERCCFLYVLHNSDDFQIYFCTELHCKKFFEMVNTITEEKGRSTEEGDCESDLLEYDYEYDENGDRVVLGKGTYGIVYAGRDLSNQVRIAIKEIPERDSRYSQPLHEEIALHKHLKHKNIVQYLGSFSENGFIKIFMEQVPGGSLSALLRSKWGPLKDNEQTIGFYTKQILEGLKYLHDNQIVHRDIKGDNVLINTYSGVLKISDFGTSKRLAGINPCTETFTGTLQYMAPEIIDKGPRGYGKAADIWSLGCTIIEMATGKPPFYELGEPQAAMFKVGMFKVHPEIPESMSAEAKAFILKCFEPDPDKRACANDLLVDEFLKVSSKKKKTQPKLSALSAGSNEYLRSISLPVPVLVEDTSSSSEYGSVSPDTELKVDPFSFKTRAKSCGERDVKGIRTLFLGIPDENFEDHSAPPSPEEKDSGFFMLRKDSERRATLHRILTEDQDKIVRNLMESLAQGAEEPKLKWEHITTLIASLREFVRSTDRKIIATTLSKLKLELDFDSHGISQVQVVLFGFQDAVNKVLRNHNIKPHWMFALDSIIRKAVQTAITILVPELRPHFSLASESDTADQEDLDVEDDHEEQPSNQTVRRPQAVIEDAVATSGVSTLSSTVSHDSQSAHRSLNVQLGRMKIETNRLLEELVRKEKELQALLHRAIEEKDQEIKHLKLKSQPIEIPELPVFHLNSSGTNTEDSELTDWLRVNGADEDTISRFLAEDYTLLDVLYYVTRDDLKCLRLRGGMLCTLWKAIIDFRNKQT
UniProt Q13546: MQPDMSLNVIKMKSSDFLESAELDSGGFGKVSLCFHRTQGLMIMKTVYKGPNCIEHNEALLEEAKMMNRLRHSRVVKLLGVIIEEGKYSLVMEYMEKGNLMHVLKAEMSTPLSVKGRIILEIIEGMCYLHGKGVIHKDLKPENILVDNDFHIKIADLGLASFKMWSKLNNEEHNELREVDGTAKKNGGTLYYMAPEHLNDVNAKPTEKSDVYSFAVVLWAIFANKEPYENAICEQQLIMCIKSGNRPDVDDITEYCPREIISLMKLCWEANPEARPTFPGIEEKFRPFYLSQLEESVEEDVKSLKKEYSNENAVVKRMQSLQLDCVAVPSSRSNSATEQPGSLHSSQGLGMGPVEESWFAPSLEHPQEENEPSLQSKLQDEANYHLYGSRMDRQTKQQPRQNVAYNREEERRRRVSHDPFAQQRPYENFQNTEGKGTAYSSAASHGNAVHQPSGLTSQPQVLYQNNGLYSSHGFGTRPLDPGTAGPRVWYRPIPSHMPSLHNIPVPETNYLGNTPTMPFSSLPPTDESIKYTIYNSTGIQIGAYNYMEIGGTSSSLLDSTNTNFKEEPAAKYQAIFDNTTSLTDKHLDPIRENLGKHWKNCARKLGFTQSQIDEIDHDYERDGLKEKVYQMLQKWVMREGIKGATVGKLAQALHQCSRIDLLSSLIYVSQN

Results are given in words; binding and its absence hold for the method and conditions named. Binding seen in cells or lysates may run through a third protein. Some entries that bind do so weakly or less than the wild type. For part of these data: Sequences can lack the tags named with a protein.

For test [1], the target named is T1, A20-Flag (human TNFAIP3) expressed in Huh7 (human) (UniProt P21580).
T1 sequence: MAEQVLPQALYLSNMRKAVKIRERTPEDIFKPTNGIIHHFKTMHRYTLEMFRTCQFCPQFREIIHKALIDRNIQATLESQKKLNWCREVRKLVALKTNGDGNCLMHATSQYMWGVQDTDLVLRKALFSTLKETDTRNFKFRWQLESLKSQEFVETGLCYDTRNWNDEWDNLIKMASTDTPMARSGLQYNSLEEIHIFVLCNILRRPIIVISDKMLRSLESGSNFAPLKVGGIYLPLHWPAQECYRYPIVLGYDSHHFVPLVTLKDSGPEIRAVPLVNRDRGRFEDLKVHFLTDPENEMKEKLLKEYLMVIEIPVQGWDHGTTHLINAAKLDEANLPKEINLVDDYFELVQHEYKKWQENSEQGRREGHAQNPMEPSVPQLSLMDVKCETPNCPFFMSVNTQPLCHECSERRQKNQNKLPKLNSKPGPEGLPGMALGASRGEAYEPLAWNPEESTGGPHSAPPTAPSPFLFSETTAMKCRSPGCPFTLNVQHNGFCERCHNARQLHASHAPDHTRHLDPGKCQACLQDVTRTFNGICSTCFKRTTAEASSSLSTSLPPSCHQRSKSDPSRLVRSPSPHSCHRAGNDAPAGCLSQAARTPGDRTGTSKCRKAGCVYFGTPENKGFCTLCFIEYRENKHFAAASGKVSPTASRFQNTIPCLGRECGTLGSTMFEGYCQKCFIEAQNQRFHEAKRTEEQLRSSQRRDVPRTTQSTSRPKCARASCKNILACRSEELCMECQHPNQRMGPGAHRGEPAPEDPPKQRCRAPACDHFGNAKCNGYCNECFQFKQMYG
Kind of test: co-IP; Huh7 cells overexpressing the constructs, harvested at 48 h; same IP buffer and antibodies; western blot. On the technique in general: A western blot detects proteins with antibodies after separation by electrophoresis.

Test [2] has as its target ASK1-Flag (human apoptosis signal-regulating kinase 1, pCMV-hAsk1-Flag) (human) (UniProt Q99683). Kind of test: co-IP; HEK293T cells cotransfected with GFP-A20 and ASK1-Flag together with HA-RIPK1 or control vector for 24 h; IP with GFP tag or Flag tag antibody or isotype-matched IgG; blots for ASK1, A20 and RIPK1.
In test [3] the target is T2, GFP-A20 (human TNFAIP3, pEGFP1-C1-hA20) (human) (UniProt P21580).
T2 sequence: T1 sequence
Described as above.

Test [4] concerns the target T3, A20-Flag (human TNFAIP3, pCMV-hA20-Flag) (human) (UniProt P21580).
T3 sequence: T1 sequence
Description: co-IP; HEK293T cells cotransfected with two tagged proteins, harvested at 24 h; IP buffer 20 mM Tris pH 7.5, 150 mM NaCl, 5 mM EDTA, 0.5% Triton; IP overnight at 4 °C with anti-Flag-M2 agarose, anti-HA or anti-GFP antibody, isotype-matched IgG as control; western blot.

As to “HA-RIPK1 (human RIPK1) expressed in Huh7 (from UniProt Q13546 1-671)”, the binding result in test [1] is “binds”. For the substance “HA-RIPK1 (human receptor interacting protein kinase-1, 3HA-pCDNA3.3-hRIPK1) (from UniProt Q13546 1-671)”, the binding entry in test [2] is given as “no binding”; in test [3] it was “binds”; in test [4], “binds”. For the substance “HA-RIPK1^D138N (kinase dead human RIPK1) (from UniProt Q13546 1-671)”, the binding result in test [4] is listed as “binds”. As to “HA-RIPK1^D138N (kinase dead human RIPK1) expressed in Huh7 (from UniProt Q13546 1-671)”, the binding result in test [1] is on record as “binds”.
